{
  "source": "PubChem BioAssay AID602156",
  "about": "(GNF / Scripps Winzeler lab, 2011)",
  "note": "Values joined by “and” are separate entries in the source; they are usually repeats but may differ in a detail not shown here. Identical values can stand only once. The list shows a part of the results. The main result of the screen is listed elsewhere. These columns were measured beside it and carry no call.",
  "data": [
    {"assay": "Plasmodium liver-stage growth inhibition, dose response, imaging, Malaria Box, P. yoelii, HepG2-A16-CD81EGFP (AID 602156);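 note: infected cells exposed to compound for 48 hours before fixation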", "conditions": "P. yoelii liver stage in HepG2-A16-CD81EGFP, measured here: liver parasite size at 10 uM", "values": [
      {"smiles": "Cc1oc2c(c1C(=O)NC1CCS(=O)(=O)C1)C(=O)c1ccccc1C2=O", "note": "(configuration not stated)", "parasite size": "17.5 um"},
      {"smiles": "CCCCc1c(C)[nH]c2c(OC)cccc2c1=O", "parasite size": "42.6 um"},
      {"smiles": "O=C(Cn1ccc(=NCc2ccccc2)cc1)c1ccc(I)cc1", "parasite size": "45 um"},
      {"smiles": "Cc1ccnc(NC(c2ccc3ccccc3c2)c2ccc3cccnc3c2O)c1", "note": "(configuration not stated)", "parasite size": "26.7 um"},
      {"smiles": "COc1ccc(-c2n(CC(=O)OC3CC(C)CCC3C(C)C)c3ccccc3[n+]2C)cc1", "note": "(configuration not stated)", "parasite size": "14.3 um"},
      {"smiles": "CCN1CCN(c2cc(C)c3cc(NC(=O)c4cc(OC)cc(OC)c4)ccc3n2)CC1", "parasite size": "114 um"},
      {"smiles": "Cc1ccnc(Nc2nc(-c3ccccn3)cs2)c1", "parasite size": "19.2 um"},
      {"smiles": "Cc1ccc(CSCc2ccc(C(=O)NC3CC3)o2)cc1", "parasite size": "25.4 um"},
      {"smiles": "CC1(C)N=C(N)N=C(N)N1c1ccccc1", "parasite size": "37 um"},
      {"smiles": "CC(C)(C)C1CCc2[nH]c3ccccc3c(=O)c2C1", "note": "(configuration not stated)", "parasite size": "22.1 um"},
      {"smiles": "CCCCCc1ccc(OCCCC[n+]2cccc(C)c2)c(CCCCC)c1", "parasite size": "23.5 um"},
      {"smiles": "Cc1nc2cc(-c3ccc(I)cc3)[nH]n2c(=O)c1C", "parasite size": "35.3 um"},
      {"smiles": "CCN1CCN(c2c(C(=O)c3ccccc3)cnc3cc(OC)c(OC)cc23)CC1", "parasite size": "89.8 um"},
      {"smiles": "c1ccc(OCCOc2ccc(Nc3c4ccccc4nc4ccccc34)cc2)cc1", "parasite size": "41.3 um"},
      {"smiles": "CC(=O)N(C1=C(N2CCOCC2)C(=O)c2ccccc2C1=O)c1cccc(Cl)c1", "parasite size": "43.7 um"},
      {"smiles": "CC1CC(N(C(=O)c2ccc(Cl)cc2Cl)c2ccccc2)c2ccccc2N1C(=O)c1ccc(Cl)cc1", "note": "(configuration not stated)", "parasite size": "111 um"},
      {"smiles": "OC(CNC1CCCCC1)Cn1c2ccccc2c2ccccc21", "note": "(configuration not stated)", "parasite size": "143 um"},
      {"smiles": "c1ccc(-c2cc(N3CCN(c4ccccn4)CC3)nc(-c3ccccn3)n2)nc1", "parasite size": "24.3 um"},
      {"smiles": "c1ccc(OCCOc2ccc(Nc3ccnc4cc5ccccc5cc34)cc2)cc1", "parasite size": "18.1 um"},
      {"smiles": "Cc1cccc2c1[nH]c1nc(SCC(C)C)nnc12", "parasite size": "36.4 um"},
      {"smiles": "Fc1ccc(Nc2nc(NCc3ccccc3)c3ccccc3n2)cc1", "parasite size": "155 um"},
      {"smiles": "CCOc1ccc2[nH]c(=O)c(CN(CCN(CC)CC)C(=S)NCCCN(CC)CC)cc2c1", "parasite size": "121 um"},
      {"smiles": "CCCc1ccc(C(=O)NC(=O)c2ccccc2O)cc1", "parasite size": "23.2 um"},
      {"smiles": "CCOC(=O)c1c[nH]c2ccc(C(C)C)cc2c1=O", "parasite size": "31.4 um"},
      {"smiles": "Fc1ccccc1Nc1nc(NCc2ccccc2)c2ccccc2n1", "parasite size": "37.6 um"},
      {"smiles": "O=C(c1cnsn1)N1CCCC(COc2cccc(CN3CCC(Cc4ccccc4)CC3)c2)C1", "note": "(configuration not stated)", "parasite size": "69.4 um"},
      {"smiles": "c1ccc(CNc2nc(Nc3ccccc3)nc3ccccc23)cc1", "parasite size": "29.9 um"},
      {"smiles": "CC[C@H]1CN2CCc3cc(OC)c(OC)cc3[C@@H]2C[C@@H]1C[C@H]1NCCc2cc(OC)c(OC)cc21", "parasite size": "26.5 um"},
      {"smiles": "Oc1cccc(Nc2nc(NCC3CCCO3)c3ccccc3n2)c1", "note": "(configuration not stated)", "parasite size": "74.3 um"},
      {"smiles": "CCn1c(/C=C/C=C2\\N(C)c3ccccc3C2(C)C)[n+](Cc2ccccc2)c2ccccc21", "parasite size": "14 um"},
      {"smiles": "COc1cccc(C(=O)NC(c2ccccc2OC)c2cc(Cl)c3cccnc3c2O)c1", "note": "(configuration not stated)", "parasite size": "20.2 um"},
      {"smiles": "O=c1c2ccccc2[nH]c2ccc(F)cc12", "parasite size": "29.6 um"},
      {"smiles": "CCN(CC)CCCC(C)Nc1c2ccc(Cl)cc2nc2ccc(OC)cc12", "note": "(configuration not stated)", "parasite size": "26.3 um"},
      {"smiles": "CC(=O)N(C)C1=C(N2CCOCC2)C(=O)c2ccccc2C1=O", "parasite size": "38.7 um"},
      {"smiles": "O=C(Nc1ccc(C(F)(F)F)cc1)c1ccc(NCCCN2CCCCCC2)c([N+](=O)[O-])c1", "parasite size": "74.2 um"},
      {"smiles": "COc1cccc(N2C(N)=NC(N)=NC2(C)C)c1", "parasite size": "38.1 um"},
      {"smiles": "O=C(c1cccs1)N1CCN(c2ccc([N+](=O)[O-])c(NC3CC3)c2)CC1", "parasite size": "83.6 um"},
      {"smiles": "Cc1ccc(-c2cc3nc4c(c(=O)n3[nH]2)CCCC4)cc1", "parasite size": "26.4 um"},
      {"smiles": "CCOC(=O)c1cnc2ccc(OC)cc2c1NCc1cccs1", "parasite size": "31.6 um"},
      {"smiles": "O=c1c2c([nH]c3ccccc13)CCCCCC2", "parasite size": "42.5 um"},
      {"smiles": "c1ccc(-c2ccc(-c3ccccn3)nc2)nc1", "parasite size": "22.3 um"},
      {"smiles": "Cc1cc(C(=O)Nc2cnn(Cc3ccc(Cl)cc3Cl)c2)no1", "parasite size": "57.8 um"},
      {"smiles": "O=C(c1ccc([N+](=O)[O-])cc1)c1ccc(Cl)c(Cl)c1", "parasite size": "109 um"},
      {"smiles": "CCCCCCCn1c2c(c(=N)c3ccccc31)CCC2", "parasite size": "23.6 um"},
      {"smiles": "CN1CCN(c2ccc(Nc3c4ccccc4nc4ccccc34)cc2)CC1", "parasite size": "45.8 um"},
      {"smiles": "CCOc1ccc(Nc2nc(NCc3ccccc3)c3ccccc3n2)cc1", "parasite size": "23.7 um"},
      {"smiles": "Cc1ccccc1N=Nc1ccc(NC(=O)c2ccco2)c(C)c1", "parasite size": "51.9 um"},
      {"smiles": "Cc1[nH]c2ccc(Br)cc2c(=O)c1CC(C)C", "parasite size": "30.8 um"},
      {"smiles": "CCC(=O)NC(c1ccccc1Cl)c1cc(Cl)c2cccnc2c1O", "note": "(configuration not stated)", "parasite size": "55.1 um"},
      {"smiles": "CCCCN(CCCC)S(=O)(=O)c1ccc(NC(=O)c2ccco2)cc1", "parasite size": "35.3 um"},
      {"smiles": "COC(=O)C1=C(C)NC2=C(C(=O)CC(c3ccccc3Cl)C2)C1c1ccc([N+](=O)[O-])cc1", "note": "(configuration not stated)", "parasite size": "61.1 um"},
      {"smiles": "CN(C)c1ccc(-c2n(C)c3ccccc3[n+]2C)cc1", "parasite size": "46.9 um"},
      {"smiles": "CCCCOc1ccc(N(C(C)=O)C2=C(N3CCOCC3)C(=O)c3ccccc3C2=O)cc1", "parasite size": "74.8 um"},
      {"smiles": "CCCc1nc2ccc(NC(=O)c3ccco3)cc2c(=O)n1Cc1ccc(-c2ccccc2)cc1", "parasite size": "25.8 um"},
      {"smiles": "CCC(C)(C)c1ccc(OCCOCC[n+]2ccccc2)c(C(C)(C)CC)c1", "parasite size": "13.9 um"},
      {"smiles": "O=C1C(Nc2ccc(O)cc2)=CC(=NS(=O)(=O)c2cccs2)c2ccccc21", "parasite size": "12.5 um"},
      {"smiles": "CCC(/C=C1\\Sc2ccc(OC)cc2N1CCCS(=O)(=O)O)=C\\c1sc2ccc(OC)cc2[n+]1CCCS(=O)(=O)O", "parasite size": "18.1 um"},
      {"smiles": "CC[n+]1c(/C=C/C=C2\\N(C)c3ccccc3C2(C)C)n(-c2ccccc2)c2cc(Cl)ccc21", "parasite size": "12.5 um"},
      {"smiles": "CCC(Sc1nnc(-c2ccc(C)cc2)c(-c2ccc(C)cc2)n1)C(=O)NCCOC", "note": "(configuration not stated)", "parasite size": "42.6 um"},
      {"smiles": "C=CCc1c(C)[nH]c2ccc(Br)cc2c1=O", "parasite size": "32.5 um"},
      {"smiles": "CN(C)c1oc(-c2ccc(Cl)cc2Cl)nc1[P+](c1ccccc1)(c1ccccc1)c1ccccc1", "parasite size": "19.4 um"},
      {"smiles": "CCOC(=O)c1c[nH]c2ccc(OC)cc2c1=O", "parasite size": "30 um and 30.2 um"},
      {"smiles": "CCC(C)Nc1nc(NC(C)CC)nc(N2CCCCCC2)n1", "note": "(configuration not stated)", "parasite size": "20.4 um"},
      {"smiles": "CCOc1ccc2ncc(S(=O)(=O)c3ccc(OC)cc3)c(N3CCN(C)CC3)c2c1", "parasite size": "63.7 um"},
      {"smiles": "CCCN(CCC)[P+](CCC)(c1ccc([P+](CCC)(N(CCC)CCC)N(CCC)CCC)cc1)N(CCC)CCC", "parasite size": "28.3 um"},
      {"smiles": "Cc1oc2c(c1C(=O)NCCCn1ccnc1)C(=O)c1ccccc1C2=O", "parasite size": "12.5 um"},
      {"smiles": "CCC1CN2CCc3cc(OC)c(OC)cc3C2CC1CC1NCCc2cc(OC)c(OC)cc21", "note": "(configuration not stated)", "parasite size": "13.8 um"}
    ]}
  ]
}
